Whole data set: some 33,000 sequences, median “E-score (-0.5 to 0.5)” near -0.016, cut for the highest 2% near 0.31. This is one part of the list.

Results on 109 sequences are retold here after the supplement of paper PMC3334620.

The assay addresses Cst6 (UniProt P40535). Briefly: PBM E-score (8-mer binding enrichment) (E-score (-0.5 to 0.5)); higher = stronger / more preferred TF binding; most listed sequences are background and not binding sites. The note with it: protein concentration: 200 nM; construct: GST-DNA-binding domain. The gist of the method: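 PURExpress in vitro transcription/translation supplied GST-tagged yeast transcription factors, either full-length or DNA-binding domain. Applied at about 100-200 nM to universal all-10-mer Agilent arrays double-stranded by primer extension, the bound protein was detected with fluorescent anti-GST. E-scores, modified Wilcoxon-Mann-Whitney statistics, were given by the Universal PBM Analysis Suite to ungapped eight-base words pooled with their reverse complements after masliner normalisation.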
As for ATCATGTC, the “PBM E-score” value was found to be 0.213.
The figure for CAGAGGGG is -0.339; for CTCTATTA it is 0.0287; for CGTTACAG it is 0.0192.
For GTTACACA the value was 0.188.
For AGGGTTCA the value was -0.0295.
Take CTATTTTA: the “PBM E-score” value is 0.216.
Regarding ATCGTTAA, the “PBM E-score” value turned out to be 0.095.
For CCAACAAG the value was -0.0327; for AGTGGTCC, -0.0852.
The figure for CCTGGTAC is -0.0251.
The figure for GTAATGTA is 0.179; for ACGAAGAT it is 0.0664; for ACACTGTC it is -0.15.
As to AAGCACTC, the “PBM E-score” value is -0.208.
For GCGGAGCA the value was -0.103.
Consider AATTTCAC, for which the “PBM E-score” value was 0.0969.
For ACTCGTCT, the “PBM E-score” value is -0.018.
The figure for ACATCTTA is 0.126; for CGCATAGC it is -0.0786.
The figure for GAGTGAGC is -0.0451.
As to GGGAACAA, the “PBM E-score” value was -0.0237.
For CGAGGGAA the value was -0.0805; for CTATTGGC, -0.284.
With AGTCCGCG, the “PBM E-score” value was -0.0191.
Consider AAGGTCAG, for which the “PBM E-score” value is -0.256.
The figure for CCCACGAC is -0.28; for TCGGGGAA it is 0.0239.
As to CGGGTTAG, the “PBM E-score” value is -0.301.
The figure for AATTGAGC is -0.0329; for CCAACTCC it is -0.00709.
As for ATGTTGAC, the “PBM E-score” value was found to be 0.294.
Take GAGTCTAC: the “PBM E-score” value is -0.129.
For CAGGGGGA the value was -0.382; for GCTTCCCA, -0.237.
The figure for CTATCAAC is 0.0928; for TTAATGAA it is 0.201; for CTATGCTA it is -0.00196.
The figure for ATATCGAT is 0.0207.
As for AAAGCTTC, the “PBM E-score” value was -0.172.
The figure for GGACATCC is -0.274; for CCTTGCGC it is -0.158; for CCTACACG it is -0.249.
As for ACAGCAGA, the “PBM E-score” value was -0.0947.
For the sequence CCAAAGGG, the “PBM E-score” value is -0.125.
For AAGTTAAC the value was 0.181; for CGTATGTC, 0.0736; for ACTATCTC, -0.00811.
As for CCAATCCC, the “PBM E-score” value was -0.239.
Take CAACTCTC: the “PBM E-score” value was -0.257.
The figure for ATAAATTA is 0.373.
The figure for GTTGACGA is 0.192; for CACCATAC it is -0.0478; for ACCAGTCA it is -0.0553.
For the sequence CAGTGCAA, the “PBM E-score” value turned out to be 0.0823.
Consider GTTTCTAA, for which the “PBM E-score” value stood at 0.121.
For CAAATTTG the value was 0.0722; for TACACCCA, -0.0761; for GGCGTTTA, 0.161.
Take GTTTACTA: the “PBM E-score” value is 0.12.
For the sequence AAACCGCA, the “PBM E-score” value was -0.236.
The figure for GACCCTGA is -0.242; for CATCTATC it is -0.0227.
On to TCGGGACA, for which the “PBM E-score” value was -0.11.
AGTAGGTG: the “PBM E-score” value was -0.0209.
Turning to CACGTTCA, the “PBM E-score” value was -0.104.
The figure for CCCGGTTC is -0.269.
The figure for AGGACAAA is 0.129; for GCGCGATA it is 0.236.
The figure for TGCAGAAA is 0.214.
As to ATTGAGTC, the “PBM E-score” value was -0.00653.
The figure for GTCTACGA is -0.16.
For the sequence AGTTGTCC, the “PBM E-score” value is -0.0979.
On to CGGAACGA, for which the “PBM E-score” value was 0.0755.
For GTCTAACA the value was -0.113.
Regarding AAATTGCA, the “PBM E-score” value turned out to be 0.201.
The figure for ACGGTGTC is -0.101.
As to GACCGCTC, the “PBM E-score” value was -0.117.
Turning to CTCTCCAG, the “PBM E-score” value is -0.382.
For the sequence ACATATGT, the “PBM E-score” value came to 0.261.
For AGCTCCCC, the “PBM E-score” value was -0.373.
With CGATCTGA, the “PBM E-score” value is -0.0214.
For ACAGCGGC the value was -0.147; for GATTCAGA, 0.0256.
As to CCCTACAG, the “PBM E-score” value was -0.327.
For ATCTTCAC the value was 0.0987.
The figure for ACGCTTCA is -0.0976; for AAACCCGT it is 0.0445; for CCGGCTTA it is -0.22.
As to ATAACGAC, the “PBM E-score” value is 0.133.
For ACCAGACC, the “PBM E-score” value is -0.0892.
Turning to CCAACGAC, the “PBM E-score” value was -0.122.
Regarding GATTAATA, the “PBM E-score” value turned out to be 0.261.
The figure for GGGGAATA is -0.101; for TAAAACAA it is 0.131.
As for ACCTCCGG, the “PBM E-score” value is -0.116.
As to AGAATCCA, the “PBM E-score” value is -0.0573.
For AAGATATT the value was 0.0924; for GTATGTTA, 0.182; for GATTAGTA, 0.0105.
For CGACTCGC, the “PBM E-score” value was -0.116.
Take GAGAATTA: the “PBM E-score” value amounted to 0.162.
The figure for AGGCTACC is -0.254.
The figure for ATGTTTTG is 0.215; for CAGTACGG it is 0.116.
GCGTCAGC: the “PBM E-score” value came to 0.15.
For the sequence GCTTGCCC, the “PBM E-score” value is -0.266.
CGCTATAC: the “PBM E-score” value is -0.101.
Regarding GTACCGTA, the “PBM E-score” value was -0.0634.
